Publication PMC4526114, “Structure and vascular function of MEKK3–cerebral cavernous malformations 2 complex” (Nature Communications, 2015)
These are yes or no findings as the source states them, for the method shown. For some of these results: Binding seen in cells or lysates may run through a third protein. Some results given as binding are weak or reduced against the parent protein; the word gives no strength. For some of these results: Where a sequence is shown, tags or fusion partners need not be part of it. One block for each molecule: values may come before it.

Assays:
[1] = molecular target: T1, MEKK3^NPB1 (human, UniProt Q99759 1-124); assay: ITC; CCM2^HHD injected into MEKK3^NPB1 in 20 2.5-μl injections at 25 °C; 150 mM NaCl, 50 mM HEPES pH 7.5; nano-ITC; 'observed Kd'; both purified
T1 construct: MEKK3 (MAP3K3), human, residues 1–124 (N-terminal helix and PB1 domain); also called N terminus of MEKK3; 6 × His–MEKK3^NPB1 (before cleavage); not shown: His6, N-terminal, cleaved
T1 sequence: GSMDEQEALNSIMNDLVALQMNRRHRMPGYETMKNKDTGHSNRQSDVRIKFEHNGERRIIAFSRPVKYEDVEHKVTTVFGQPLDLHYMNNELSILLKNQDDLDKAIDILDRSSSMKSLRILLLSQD

[2] = molecular target: T2, MEKK3^NPB1 (A6D/L7D) (human) (UniProt Q99759); assay: as above
T2 sequence: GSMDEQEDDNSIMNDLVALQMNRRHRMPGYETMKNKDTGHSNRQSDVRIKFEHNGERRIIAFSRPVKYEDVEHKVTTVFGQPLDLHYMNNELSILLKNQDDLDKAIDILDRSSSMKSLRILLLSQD

[3] = molecular target: T3, MEKK3^NPB1 (D13R) (human) (UniProt Q99759); assay: as above
T3 sequence: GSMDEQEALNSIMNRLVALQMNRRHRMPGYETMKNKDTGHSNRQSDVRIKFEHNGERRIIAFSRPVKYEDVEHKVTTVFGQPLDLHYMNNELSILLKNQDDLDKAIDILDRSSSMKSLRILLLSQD

[4] = molecular target: T4, GST–MEKK3^PB1 (human) (UniProt Q99759); assay: condition: 60 μg purified CCM2 in a total 500 μl volume; pull-down; GST fusions of MEKK3 immobilised on glutathione Sepharose-4B beads; 5 μl bead slurry and 60 μg purified CCM2 in 500 μl, 4 °C, 2 h; 150 mM NaCl, 50 mM Tris pH 7.5, 0.1% Triton-X100; Coomassie-stained SDS–PAGE of washed beads; both purified
T4 sequence: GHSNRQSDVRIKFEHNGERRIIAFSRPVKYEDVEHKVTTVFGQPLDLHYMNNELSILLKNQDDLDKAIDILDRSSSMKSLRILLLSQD

[5] = molecular target: T5, GST–MEKK3^N (human) (UniProt Q99759); assay: as above
T5 sequence: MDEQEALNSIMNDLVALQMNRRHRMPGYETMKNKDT

[6] = molecular target: Flag-tagged full-length CCM2 (human) (UniProt Q9BSQ5); assay: co-IP; HA-tagged MEKK3 or mutants cotransfected with Flag-tagged CCM2 or mutants into 293T cells; lysis 24 h later in 20 mM Tris-HCl pH 7.4, 250 mM NaCl, 0.5% NP-40; Flag–CCM2 immunoprecipitated with anti-Flag M2; immunoblot with anti-HA and anti-Flag
[7] = molecular target: T6, GST–MEKK3^NPB1 (human) (UniProt Q99759); assay: condition: 60 μg purified CCM2 in a total 500 μl volume; pull-down; GST fusions of MEKK3 immobilised on glutathione Sepharose-4B beads; 5 μl bead slurry and 60 μg purified CCM2 in 500 μl, 4 °C, 2 h; 150 mM NaCl, 50 mM Tris pH 7.5, 0.1% Triton-X100; Coomassie-stained SDS–PAGE of washed beads; both purified
T6 sequence: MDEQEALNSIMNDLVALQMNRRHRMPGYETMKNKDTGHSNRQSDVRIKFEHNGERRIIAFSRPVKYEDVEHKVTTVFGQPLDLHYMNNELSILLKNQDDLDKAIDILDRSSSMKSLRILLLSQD

binding [1]: no binding
Molecule: CCM2^HHD (A319D/A320D) (from UniProt Q9BSQ5 283-379) (domain or fragment)

binding [2]: no binding
binding [3]: no binding
binding [4]: no binding
binding [5]: no binding
B1: CCM2^HHD (domain or fragment, human)
chain: GSSKTISESELSASATELLQDYMLTLRTKLSSQEIQQFAALLHEYRNGASIHEFCINLRQLYGDSRKFLLLGLRPFIPEKDSQHFENFLETIGVKDGRG
notes: CCM2, human, residues 283–379 (harmonin homology domain); also called CCM2 harmonin homology domain; CCM2^HHD: 283–379; source: E. coli Rosetta (DE3), purified (HisTrap, TEV cleavage, size exclusion); not shown: His6, N-terminal, cleaved

binding [6]: binds
B2: HA–MEKK3^FL (protein, UniProt Q99759 1-626)
chain: MDEQEALNSIMNDLVALQMNRRHRMPGYETMKNKDTGHSNRQSDVRIKFEHNGERRIIAFSRPVKYEDVEHKVTTVFGQPLDLHYMNNELSILLKNQDDLDKAIDILDRSSSMKSLRILLLSQDRNHNSSSPHSGVSRQVRIKASQSAGDINTIYQPPEPRSRHLSVSSQNPGRSSPPPGYVPERQQHIARQGSYTSINSEGEFIPETSEQCMLDPLSSAENSLSGSCQSLDRSADSPSFRKSRMSRAQSFPDNRQEYSDRETQLYDKGVKGGTYPRRYHVSVHHKDYSDGRRTFPRIRRHQGNLFTLVPSSRSLSTNGENMGLAVQYLDPRGRLRSADSENALSVQERNVPTKSPSAPINWRRGKLLGQGAFGRVYLCYDVDTGRELASKQVQFDPDSPETSKEVSALECEIQLLKNLQHERIVQYYGCLRDRAEKTLTIFMEYMPGGSVKDQLKAYGALTESVTRKYTRQILEGMSYLHSNMIVHRDIKGANILRDSAGNVKLGDFGASKRLQTICMSGTGMRSVTGTPYWMSPEVISGEGYGRKADVWSLGCTVVEMLTEKPPWAEYEAMAAIFKIATQPTNPQLPSHISEHGRDFLRRIFVEARQRPSAEELLTHHFAQLMY

binding [7]: no binding
B3: CCM2^PTB (domain or fragment, UniProt Q9BSQ5 51-251)
chain: GSERVEPDRLLSDYIEKEVKYLGQLTSIPGYLNPSSRTEILHFIDNAKRAHQLPGHLTQEHDAVLSLSAYNVKLAWRDGEDIILRVPIHDIAAVSYVRDDAAHLVVLKTAQDPGISPSQSLCAESSRGLSAGSLSESAVGPVEACCLVILAAESKVAAEELCCLLGQVFQVVYTESTIDFLDRAIFDGASTPTHHLSLHSDDS
